According to PMC4336329 (PLoS ONE, 2015):
About 2,200 (0.71%) of roughly 310,000 compounds showed an effect of 50% or more. Effects have a minus sign here. This is one part of the list.

The molecules below were run against human ether-à-go-go-related gene (hERG) potassium channel (human, UniProt Q12809) (assay: primary screen, population patch clamp on CHO cells stably expressing hERG).
Sequence of human ether-à-go-go-related gene (hERG) potassium channel (Q12809 whole entry, looked up): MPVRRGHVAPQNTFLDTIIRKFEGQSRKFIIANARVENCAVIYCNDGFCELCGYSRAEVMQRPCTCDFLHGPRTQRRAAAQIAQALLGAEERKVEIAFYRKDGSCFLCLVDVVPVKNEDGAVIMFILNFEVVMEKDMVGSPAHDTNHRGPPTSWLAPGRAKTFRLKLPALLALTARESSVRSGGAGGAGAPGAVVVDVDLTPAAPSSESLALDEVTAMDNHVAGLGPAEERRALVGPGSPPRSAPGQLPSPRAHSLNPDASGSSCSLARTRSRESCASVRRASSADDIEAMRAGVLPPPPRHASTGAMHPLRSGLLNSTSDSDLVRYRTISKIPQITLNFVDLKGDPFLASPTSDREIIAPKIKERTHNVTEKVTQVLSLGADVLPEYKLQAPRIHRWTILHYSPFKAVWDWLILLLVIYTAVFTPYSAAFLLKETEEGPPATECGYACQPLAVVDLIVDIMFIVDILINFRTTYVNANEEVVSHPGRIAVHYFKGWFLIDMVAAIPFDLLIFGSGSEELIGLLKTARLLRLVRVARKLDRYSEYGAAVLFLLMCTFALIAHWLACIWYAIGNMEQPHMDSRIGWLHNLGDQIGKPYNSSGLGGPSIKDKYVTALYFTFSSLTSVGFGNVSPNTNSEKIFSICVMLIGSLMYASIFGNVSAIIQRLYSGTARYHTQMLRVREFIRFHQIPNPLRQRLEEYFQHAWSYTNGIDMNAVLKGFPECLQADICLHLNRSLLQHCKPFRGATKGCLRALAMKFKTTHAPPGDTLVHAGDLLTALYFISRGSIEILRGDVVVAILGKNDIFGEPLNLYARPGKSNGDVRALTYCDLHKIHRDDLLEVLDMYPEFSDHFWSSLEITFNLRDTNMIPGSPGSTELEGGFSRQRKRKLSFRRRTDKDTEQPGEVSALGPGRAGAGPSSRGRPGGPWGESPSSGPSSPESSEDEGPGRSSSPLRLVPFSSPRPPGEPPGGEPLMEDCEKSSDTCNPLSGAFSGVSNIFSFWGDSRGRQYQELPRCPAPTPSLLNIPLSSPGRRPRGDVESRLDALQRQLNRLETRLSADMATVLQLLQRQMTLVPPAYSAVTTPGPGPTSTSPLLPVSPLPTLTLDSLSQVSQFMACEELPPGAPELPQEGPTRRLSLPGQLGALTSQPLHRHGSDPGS

Row | Compound | hERG current change (%, negative = inhibition) at 1uM
1 | CCn1c(SCC(=O)N2CCCc3ccccc32)nnc1-c1ccoc1C | 5.63%
2 | COC(=O)CSc1ccsc1C(=O)O | 6.32%
3 | CCNc1nc2nc3ccc(C)cn3c(=O)c2cc1C(=O)NCC1CCCO1 (centres unmarked) | -31.2%
4 | CCc1ccc(/C=C2/C(=O)N(c3ccccc3)C(=S)N2CC(=O)OC)s1 | 10.6%
5 | COC(=O)CN(c1ccccc1)S(=O)(=O)c1ccccc1 | 2.9%
6 | COc1cc(CNc2nc(C)c([N+](=O)[O-])c(C)c2C#N)cc(OC)c1 | 14.2%
7 | COc1cc(/C=N/O)ccc1Oc1ccc([N+](=O)[O-])cc1[N+](=O)[O-] | -16.7%
8 | C/C(CC(=O)Nc1ccc(C)c(Cl)c1)=N\NC(=O)C1CCCCC1 | 12.4%
9 | CCOC(=O)c1cc2occc2n1CC(=O)Nc1ccc(OC)cc1OC | 9.65%
10 | c1ccc2c(c1)[nH]c1c(N3CCCC3)ncnc12 | 5.61%
11 | Cc1ccccc1NC(=O)C1CCC(C)(C(=O)O)C1(C)C (centres unmarked) | 16.3%
12 | O=C(COC(=O)CNC(=O)C1CCCCC1)NCc1ccccc1 | 1.68%
13 | O=C(CNC(=O)c1ccco1)OCC(=O)c1ccc(Cl)cc1Cl | 11.1%
14 | CCOC(=O)c1sc(NC(=O)c2c(OC)cccc2OC)nc1C | 7.46%
15 | COc1ccc(OCCOc2ccc(S(=O)(=O)N3CCCC3)cc2C(N)=O)cc1 | -3%
16 | O=C1CCc2cc(S(=O)(=O)NCc3ccc(F)cc3)cc3c2N1CCC3 | 2.52%
17 | COc1cccc(CNC(=O)CN2c3cccc4cccc(c34)S2(=O)=O)c1 | 2.9%
18 | O=C(COC(=O)c1cccc(S(=O)(=O)N2CCN(c3ccccc3)CC2)c1)NCc1ccco1 | 1.45%
19 | COCCCn1c(SCC(=O)N2CCc3ccccc32)nnc1-c1ccco1 | 1.5%
20 | CC(C)CC(=O)Nc1ccc2c(c1)oc1ccccc12 | 12%
21 | COc1ccc(Cl)cc1C(=O)OCC(=O)N(C)CC(=O)Nc1ccc(F)cc1 | 0.0097%
22 | C=CCSc1n[nH]c(-c2ccc(OCCCC)cc2)n1 | 2.58%
23 | CCc1ccc(NC(=O)[C@H](Cc2ccccc2)NC(=O)C2CCN(C(=O)[C@@H](N)CC(C)C)CC2)cc1 | 0.234%

Row | Compound | hERG current change (%, negative = inhibition) at 1uM
24 | CCc1ccc(C(=O)COC(=O)c2cccs2)cc1 | 10.1%
25 | COc1ccc(C(=O)NCc2nnc(SCC(=O)Nc3cccc(OC)c3)o2)cc1 | 7.96%
26 | O=C(CCN1C(=O)/C(=C/c2ccccc2Cl)SC1=S)NN1CCOCC1 | 5.74%
27 | O=C(O)CSc1cccc[n+]1[O-] | -2.25%
28 | C/C(=N\NC(=O)c1c(Br)c(C)nn1C)c1ccc(NC(=O)C(C)Oc2ccc(Cl)cc2C)cc1 (centres unmarked) | 5.27%
29 | CN(CC(=O)N1CCCCCC1)S(=O)(=O)c1ccc(Br)s1 | 0.744%
30 | CCn1c(=NC(=O)c2ccc(S(=O)(=O)N3CCOCC3)cc2)sc2cccc(OC)c21 | 7.72%
31 | CCC(C)NS(=O)(=O)c1ccc(OCC(=O)N2CCC(C)CC2)cc1 (centres unmarked) | 12.3%
32 | COC(=O)CCC(=O)OC1(C)C(=O)C2=CN(CCCOC(C)C)C(c3ccc(OC)cc3)=CC2=C(Br)C1=O (centres unmarked) | 6.32%
33 | COc1ccc2nc(NC(=O)CS(=O)(=O)Cc3ccccc3)sc2c1 | 1.1%
34 | Cc1ccccc1N1CCN(Cc2nc(Cc3ccccc3)no2)CC1 | 8.68%
35 | Cc1ccc2nc(C)c3c(c2c1)OC(C(C)(Cl)Br)C3 (centres unmarked) | 6.44%
36 | CCOC(=O)c1cc2c(C)nn(-c3ccccc3)c2s1 | -0.451%
37 | CCOC(=O)c1sc(NC(=O)c2ccccc2OC)nc1C | 18.7%
38 | CC12C=CC3(O1)C(C(=O)N1CCCOC13)C2C(=O)O (centres unmarked) | 10.9%
39 | CCc1ccc(N(C(=O)c2snc(C(N)=O)c2N)C(C(=O)NC2CCCC2)c2ccncc2)cc1 (centres unmarked) | 10.8%
40 | O=C(O)c1ccc(CSc2nc3ccc(N4C(=O)C5C6C=CC(C6)C5C4=O)cc3s2)cc1 (centres unmarked) | -36.1%
41 | OC(CSc1ccccc1Cl)CN1CCN(c2ccccc2F)CC1 (centres unmarked) | 1.43%
42 | Cc1ccc(NC(=O)CSCC(=O)NC2(C)CCS(=O)(=O)C2)cc1 (centres unmarked) | 12.9%
43 | Cc1cc(-c2ccc(S(=O)(=O)N3CCN(c4ccccc4F)CC3)s2)on1 | 9.19%
44 | O=C(NC(=S)Nc1ccc2oc(-c3ccncc3)nc2c1)c1ccccc1F | 11.5%
45 | NNC(=O)Cn1c(COc2ccc(Cl)cc2)nc2ccccc21 | 4.77%
46 | CCCC1(C(=O)O)NC(c2cccc(OC)c2O)C2C(=O)N(c3ccccc3)C(=O)C21 (centres unmarked) | 3.47%

Row | Compound | hERG current change (%, negative = inhibition) at 1uM
47 | Cc1ccc(NC(=O)COc2ccc(Br)cn2)cc1 | 8.55%
48 | Cc1oc(-c2ccccc2)nc1CN1C(=O)C(C)N=C(c2ccccc2F)c2cc(Cl)ccc21 (centres unmarked) | -0.714%
49 | O=C(NCC1CCCO1)C1c2ccccc2C(=O)N1C1CCCCCC1 (centres unmarked) | -12.5%
50 | O=C(NCC1CCCO1)c1onc(CSc2ccc(Cl)cc2)c1C(=O)O (centres unmarked) | 14.7%
51 | Cc1cccc(NC(=O)c2cc(C)nc3ccccc23)c1 | 17.4%
52 | CCCOc1ccccc1N1C(=O)CC(N(O)c2ccccc2)C1=O (centres unmarked) | 6.89%
53 | COc1ccc(F)cc1CN1CCN(CC(=O)N2CCc3ccccc32)CC1 | 0.281%
54 | O=C(NCCCN1CCCC1=O)c1ccc(S(=O)(=O)Nc2ccccc2)cc1 | 10.6%
55 | CCS(=O)(=O)N1Cc2ccccc2CC1C(=O)Nc1ccc(OC)cc1 (centres unmarked) | 10%
56 | Cn1c(=O)c2c(ncn2C)n(C)c1=O | 11.7%
57 | Cc1c(C(=O)N2CCN(C)CC2)oc2c1C(=O)CC(C)(C)C2 | 8.64%
58 | Cc1cc(OCc2cc(C(=O)NCc3cc(C(C)C)no3)no2)cc(C)c1Cl | 8.22%
59 | COC(=O)c1cc(C)sc1NC(=O)C1CC(=O)NN1Cc1ccccc1 (centres unmarked) | 13.9%
60 | CC(=O)NN1C(=O)c2ccccc2NC1c1ccoc1 (centres unmarked) | 15.4%
61 | N#CC1=C(N)Oc2cc(O)ccc2C1C1CCCCC1 (centres unmarked) | 10.5%
62 | COc1ccc(N(CC(=O)N2CCCCC2)S(=O)(=O)c2ccccc2)c(OC)c1 | 10.6%
63 | CSc1cccc(NC(=O)CN(C)S(=O)(=O)c2ccc(C)cc2)c1 | 3.07%
64 | COc1cc(C(CCN2CCCC(C)C2)c2c(OC)cc(OC)c3c(-c4ccccc4)cc(=O)oc23)cc(OC)c1OC (centres unmarked) | 3.69%
65 | Cc1ccc(S(=O)(=O)N2CCOC2CNC(=O)C(=O)NCCc2c[nH]c3ccccc23)cc1 (centres unmarked) | 6.84%
66 | CCOC(=O)c1sc(=NC(=O)c2ccc(F)cc2)n(C)c1C | 14%
67 | CCC1NC(=S)N(C2CCCCC2)C1=O (centres unmarked) | 3.79%
68 | Cc1cc(=S)cc(C)n1CCCn1ccnc1 | 1.77%
69 | O=C1c2ccccc2CN1C(CO)c1ccccc1 (centres unmarked) | 10.8%

Row | Compound | hERG current change (%, negative = inhibition) at 1uM
70 | CC(=O)N1CCN(c2ccc(NC(=O)c3ccc(F)cc3)cc2)CC1 | 4.5%
71 | Cc1ccc2nc(/C(C#N)=C\c3ccc(N4CCCCC4)c([N+](=O)[O-])c3)[nH]c2c1 | 8.84%
72 | O=C(O)CSCc1ccc(C(=O)O)o1 | 18.4%
73 | COc1cc(OC)c2c(c1)C(=O)c1cc(OC)cc(OC)c1C2=O | 9.08%
74 | Cc1cc(C(=O)CN2CCCCC2)c(C)n1-c1ccc(F)cc1 | 5.63%
75 | CC1(C)C(=O)Nc2ccccc2N1C(=O)COc1ncnc2ccccc12 | 6.74%
76 | Fc1ccc(NC(=S)NNc2ncc(C(F)(F)F)cc2Cl)c(F)c1 | 6%
77 | O=C(Nc1nnc(Cc2ccc([N+](=O)[O-])cc2)s1)c1ccc2c(c1)OCO2 | 6.34%
78 | CN(C)C(=O)c1cnc(-c2ccccc2)nc1-c1ccccc1 | 16.9%
79 | CCCCCOC(=O)C(C)c1c(C)[nH]c(=S)[nH]c1=O (centres unmarked) | 8.79%
80 | CCOC(=O)c1ccc(NC2c3ccccc3C(=O)N2c2ccccn2)cc1 (centres unmarked) | 8.98%
81 | CCOc1ccc(C2N(c3ccc(F)cc3)C(=O)C3CCCN32)cc1OC (centres unmarked) | -11.5%
82 | Cc1cc(Cl)c(S(=O)(=O)Nc2ccc3c(c2)OCCO3)cc1OCC(N)=O | 4.88%
83 | O=C1CCC(C(=O)N2CCCCO2)CN1Cc1ccc(Cl)cc1 (centres unmarked) | 17.8%
84 | CC(=O)Nc1ccc(C2NC(=S)N(c3ccccc3C(F)(F)F)C(C)=C2C(=O)N2CCOCC2)cc1 (centres unmarked) | 8.49%
85 | Cc1cc(C(=O)Cn2nc(C(=O)O)c3ccccc3c2=O)c(C)n1C1CC1 | 8.19%
86 | CC(NC(=O)c1cccc(Cl)c1)C1CC2CCC1C2 (centres unmarked) | 12.2%
87 | Cn1nnc(NC(=S)NC(=O)c2cccc3c(Cl)cccc23)n1 | 24.1%
88 | Cc1ccc(-c2cc(C(=O)Nc3cc(C)on3)c3ccccc3n2)c(C)c1 | 7.18%
89 | O=C(c1ccccc1)c1nc[nH]c1C(=O)Nc1ccccc1 | 7.84%
